# The list shows a part of the results. These are noisy estimates, calculated here from bound and input reads.
# Molecular target: T1, Pho4 (S. cerevisiae) (UniProt P07270)
# T1 sequence: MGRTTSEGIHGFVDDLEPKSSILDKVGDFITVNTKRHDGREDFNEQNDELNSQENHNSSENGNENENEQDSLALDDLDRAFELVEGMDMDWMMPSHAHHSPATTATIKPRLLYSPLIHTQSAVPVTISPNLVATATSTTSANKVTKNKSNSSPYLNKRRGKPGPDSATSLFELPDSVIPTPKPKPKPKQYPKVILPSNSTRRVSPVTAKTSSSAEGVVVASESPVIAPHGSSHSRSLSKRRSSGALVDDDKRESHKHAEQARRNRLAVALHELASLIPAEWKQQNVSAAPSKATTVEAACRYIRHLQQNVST
# Assay: relative binding free energy (BET-seq); higher = weaker binding
# Settings: reference: library average
row,Sequence,relative binding free energy [kcal/mol]
1,GGGTTCACGTGGAGGG,0.39
2,GGGACCACGTGGTAGG,-0.07
3,TCGATCACGTGTGGGG,0.23
4,TTGGACACGTGGTGTA,-0.06
5,CCAGGCACGTGGGGAT,-0.17
6,GGGAACACGTGGAGAG,-0.03
7,TTGAACACGTGGTTGT,0.09
8,ATGTTCACGTGGAATT,0.17
9,TTAAACACGTGCGTGT,0.05
10,TGATGCACGTGACAGT,0.03
11,ACTGGCACGTGTAGTG,-0.19
12,TGAGGCACGTGGCACG,-0.16
13,ATGGTCACGTGATTCT,0.31
14,ATAGGCACGTGGCTTG,-0.15
15,AGTTCCACGTGTTTAG,0.07
16,AATGACACGTGGGCGG,-0.24
17,TTAAACACGTGTTGAG,0.01
18,TTGATCACGTGTGTAA,0.2
19,ATTGGCACGTGCGATG,-0.14
20,AGGGTCACGTGCAGGC,-0.02
21,CGTCGCACGTGCTGGT,-0.03
22,GTGTGCACGTGTGATT,0.2
23,TGGTTCACGTGATGTC,0.37

row,Sequence,relative binding free energy [kcal/mol]
1,GTCGTCACGTGTGATT,0.19
2,CTTTCCACGTGGTTTG,0.04
3,TTATGCACGTGCGGAG,-0.07
4,GGGTACACGTGGCGGT,0.06
5,AAATTCACGTGCTGGG,0.15
6,TTCGTCACGTGTGGAG,0.09
7,ATAGTCACGTGATAAT,0.29
8,AAGGGCACGTGTCATG,-0.15
9,GACTGCACGTGTAGTG,0.11
10,GGAGGCACGTGGTCGT,-0.17
11,CTGAGCACGTGTATGG,0.02
12,AGACACACGTGGGTTG,-0.2
13,ACTGTCACGTGAGGGA,0.31
14,AGTATCACGTGTATTA,0.11
15,TTGATCACGTGGTGTA,0.05
16,GTCGTCACGTGGCGGG,0.02
17,TGTGGCACGTGAGTTT,0.14
18,TTTTCCACGTGTTTTT,0.07
19,TGGTTCACGTGTGGCA,0.23
20,TATTTCACGTGTCAGC,0.36
21,ATTGGCACGTGTAAGT,-0.02
22,GGCGACACGTGTGTGC,0.08
23,TTATTCACGTGCTCGT,0.18

row,Sequence,relative binding free energy [kcal/mol]
1,TTTTTCACGTGCGGGT,0.4
2,TACGCCACGTGAGGGT,0.07
3,TAAGGCACGTGTTAAG,-0.06
4,AGTCTCACGTGAGTAT,0.44
5,GGAATCACGTGGATAT,0.21
6,AGAGTCACGTGTAAGT,0.28
7,GGTGACACGTGGTAAG,-0.05
8,GGGCGCACGTGGGCAT,-0.22
9,AGCTGCACGTGGGTGA,-0.26
10,TTGTCCACGTGTTGAT,0.1
11,GGTGTCACGTGGGCCG,-0.04
12,ATGATCACGTGTCGTG,0.2
13,CGAGGCACGTGGGGAC,-0.06
14,CATTGCACGTGTCGTT,0.09
15,CTCTGCACGTGGGTAG,-0.11
16,TAGGTCACGTGGGATT,0.08
17,AGGGACACGTGAAATT,0.39
18,CTATTCACGTGATGTA,0.26
19,TGGGGCACGTGAAGGC,0.1
20,CTATTCACGTGTTATG,0.21
21,TAGTGCACGTGGGTAA,-0.07
22,CAGTGCACGTGTGTGT,0
23,ATTATCACGTGACGCT,0.44

row,Sequence,relative binding free energy [kcal/mol]
1,TTGGGCACGTGTGTCA,0.03
2,TGGTGCACGTGTTGGA,0.06
3,GGGTACACGTGGAATG,0.18
4,GAGCGCACGTGATGTT,0.09
5,GGCTTCACGTGGGGCT,0.26
6,GGTATCACGTGGTTAG,0.02
7,GTGAACACGTGTGTAG,-0.04
8,CTGGGCACGTGTGTAA,-0.15
9,CGGGGCACGTGTCGTG,-0.09
10,GGCTGCACGTGCGTTT,0.1
11,CGGAGCACGTGTTATT,0.09
12,GGGGTCACGTGGGGCA,0.1
13,GGTAGCACGTGGGTTA,-0.24
14,TTTCCCACGTGTTTTG,0.02
15,TTTCTCACGTGGTTAG,0.15
16,TGCAGCACGTGTCGTG,-0.15
17,TATGTCACGTGCAAGG,0
18,GGTAGCACGTGGTGTG,-0.09
19,ACACTCACGTGGTGGG,0.23
20,TGAAGCACGTGTGGAG,0.01
21,TAGGACACGTGTTTCT,0.12
22,ATGTTCACGTGGACAG,0.27
23,TTGGACACGTGGGTCT,-0.01

row,Sequence,relative binding free energy [kcal/mol]
1,TATAACACGTGGTGAT,-0.19
2,TTATACACGTGTGTTT,0.11
3,AAGTGCACGTGTAGGA,0.05
4,AGTTTCACGTGGACAG,0.24
5,GCTGTCACGTGTAGGG,0.02
6,CTAGTCACGTGTAAGT,0.26
7,TTGTGCACGTGCCATG,-0.09
8,TGGTTCACGTGAAAAT,0.47
9,GATGGCACGTGTATTA,-0.07
10,TCGGTCACGTGGTTTG,0.15
11,GAGATCACGTGTGAGG,0.24
12,TGGTTCACGTGGAAGG,0.18
13,TGAGGCACGTGCATTG,-0.12
14,AGGAACACGTGTGGGG,0.07
15,TTCGGCACGTGCGGTT,-0.12
16,CTAATCACGTGTTGTT,0.06
17,TAGATCACGTGCGTTA,0.09
18,GTGCACACGTGTTGGG,0.05
19,TTTAACACGTGAGGGG,0.17
20,TTGCCCACGTGTTTTT,0.2
21,AGGCTCACGTGGATTG,0.33
22,TAGTGCACGTGGAAAG,0.04
23,ATTTACACGTGCGTTA,0.12
